# In all, about 33,000 sequences were measured (“E-score (-0.5 to 0.5)”: median about -0.017, highest 2% from about 0.3 on). This is one part of the list.
# Molecular target: T1, Sut1 (UniProt P53032)
# T1 sequence: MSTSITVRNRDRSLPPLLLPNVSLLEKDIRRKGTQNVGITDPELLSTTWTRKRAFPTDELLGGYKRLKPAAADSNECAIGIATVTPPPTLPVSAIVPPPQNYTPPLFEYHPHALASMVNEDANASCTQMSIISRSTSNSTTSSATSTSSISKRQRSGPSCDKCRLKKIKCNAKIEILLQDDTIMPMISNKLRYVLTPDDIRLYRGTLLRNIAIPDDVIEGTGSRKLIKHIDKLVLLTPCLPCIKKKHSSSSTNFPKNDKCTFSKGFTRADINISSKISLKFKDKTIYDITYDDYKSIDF
# Test: PBM E-score (8-mer binding enrichment) (E-score (-0.5 to 0.5)); higher = stronger / more preferred TF binding; most listed sequences are background and not binding sites
# Settings: protein concentration: 200 nM; construct: GST-full length
# Protocol: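 Universal 'all 10-mer' protein binding microarrays (Agilent AMADID 015681) probed with GST-tagged S. cerevisiae TFs (full-length or DBD) made by in vitro transcription/translation (PURExpress), about 100-200 nM. Bound TF was detected with fluorescent anti-GST. Each ungapped 8-mer (which stands for itself and its reverse complement) is scored by the PBM enrichment score (E-score), a modified Wilcoxon-Mann-Whitney statistic from -0.5 to +0.5, computed with the Universal PBM Analysis Suite. Scale: above 0.35 generally sequence-specific binding.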
row,Sequence,PBM E-score
1,ATGGACCA,-0.0417
2,GTGTGTTA,0.123
3,ATCCGTGC,0.0778
4,CGGCGGAA,0.179
5,AATCTAAT,0.148
6,CGCGCAAC,-0.114
7,GCACTGAC,-0.129
8,CATAGGAA,-0.0372
9,GGCTATGA,-0.12
10,TATTTGGA,-0.0115
11,GAGGACCA,-0.165
12,CCACGAGA,-0.186
13,AGTCCTCC,-0.103
14,CCCAGACA,-0.207
15,ACACCAGT,-0.167
16,AGAACCCA,-0.159
17,CCCGATGC,0.00652
18,GCCCTGGA,-0.174
19,ACACAAAC,0.0833
20,AACTCTTC,-0.0848
21,TAAACGTA,0.131
22,ATCGCGTA,-0.0814
23,ATAACGCC,0.102
24,ACTGTTCG,0.0597
25,ACGTGTGA,-0.154

row,Sequence,PBM E-score
1,AACCGGTG,0.0206
2,GAGAAACC,0.0365
3,CTATCCCA,-0.0943
4,ACCTATGG,-0.108
5,CCTCCTTA,-0.214
6,AGTAATTA,0.241
7,AGACGAGG,-0.182
8,TATTCACA,0.214
9,CGGGAATC,-0.0254
10,GCTGGGCC,-0.172
11,CACTCGCG,-0.152
12,CTCGTACA,-0.0457
13,TAGTTTGA,0.152
14,CTGGTTAA,0.141
15,CCTCTTAG,0.252
16,ATGTGGAA,0.106
17,GGAATAAC,0.138
18,GGCATCGA,-0.132
19,CGGCCCAC,-0.185
20,AATACACA,0.162
21,CCCTCCGC,-0.318
22,CGGTCAAC,-0.0629
23,GACAACCA,0.0957
24,CAACTGAG,-0.0543
25,ACTTCAGA,0.155

row,Sequence,PBM E-score
1,TAGCGCCA,-0.145
2,GAAGCCGA,0.146
3,TAGGGATA,-0.0404
4,AGACGCCG,-0.0346
5,AGCGGCAG,-0.169
6,CCAATCAG,-0.227
7,CGTCACTA,-0.106
8,ATGTACTA,0.0492
9,ACTAAGGC,-0.131
10,ACCTTTAG,0.0824
11,CCGTGTTA,0.0373
12,AGAGTGTA,-0.154
13,AAAGGTCT,0.051
14,ATAGAACA,0.129
15,CCTGTTAA,-0.0342
16,ATTTCCCG,0.214
17,ACGCGGAT,0.0724
18,AAAGCGCT,0.16
19,ATCACGCA,0.101
20,TAGAGGAA,-0.127
21,GTAGCGGA,0.247
22,ATTGGCAA,-0.0005
23,CTGGTCGC,-0.201
24,CGTCGGGA,0.00562
25,GACGCTGA,-0.19

row,Sequence,PBM E-score
1,GCCCCCGC,-0.317
2,ACGGCCAT,-0.178
3,GGTTACCA,-0.0179
4,CGAGCAAC,0.111
5,TCCATGAA,0.131
6,GCTTGACA,0.0631
7,AACTGTGT,0.101
8,AGCAAGCA,-0.244
9,CACCGCTA,0.0717
10,ATTGTTAA,0.131
11,CTGTTAAG,-0.0667
12,GTCGATTA,0.115
13,TCACGTAA,-0.214
14,CGGCCAAA,0.121
15,ACCCGGTC,-0.124
16,ACTTATTC,0.206
17,AAGCTTCG,0.0691
18,AAGTTGAT,0.157
19,GAGGGTGC,-0.276
20,CCGGCTTC,-0.0089
21,CATAATCA,0.231
22,ACTGATGC,-0.0711
23,AGTGTCTG,-0.134
24,CCTCTCTC,-0.123
25,CGCATGAC,-0.108

row,Sequence,PBM E-score
1,TCGTGCAA,0.0886
2,CTGGCCCA,-0.235
3,AGGTGTCG,-0.123
4,CATCAGGA,0.124
5,AGCCGCTA,-0.129
6,AATCAAGC,-0.00086
7,AGACACCC,-0.159
8,CAACTTAC,0.0196
9,AATTAATA,0.327
10,GAGTGCGC,-0.109
11,CGCTCCAG,-0.183
12,ATCACGTG,-0.143
13,ATAATATA,0.301
14,GGGAGGTA,-0.22
15,TCAGAGCA,-0.241
16,AAATTCCA,0.241
17,GCACGGCA,-0.0169
18,ATATGATA,0.186
19,ACGCTGTG,-0.069
20,ACAACAAC,0.171
21,ACTCAAAT,0.0261
22,GACTTAAC,-0.0138
23,CTTTGCAA,0.102
24,GGCGCTAA,-0.173
25,CCTCTCAG,-0.355

row,Sequence,PBM E-score
1,GACTCCGC,0.429
2,AGACGTTG,0.0136
3,ACCCGTTG,-0.287
4,ACCGGAAC,0.29
5,AGGGTTGC,-0.139
6,CAAGCGCC,-0.144
7,CACAGGAC,-0.0824
8,AGTAGTTC,0.134
9,ACCTAGAG,0.0112
10,GTCGGGCA,-0.287
11,AAATCGAT,-0.137
12,ACTTTAGG,-0.0588
13,CCAGCCAC,-0.151
14,CCCCGTAA,0.0974
15,GAGCCTAC,-0.129
16,ATGAAACG,0.0833
17,ATTATTGA,0.0438
18,AAGAGAGG,-0.101
19,GAAAAGTC,0.195
20,AGAATGCT,-0.0972
21,AAATGTTG,-0.173
22,TACATGGA,0.04
23,GTCCGGGA,0.413
24,ATAATTCC,0.202
25,CCAATATC,0.0888

row,Sequence,PBM E-score
1,ATCTCACA,-0.00326
2,ACCTACCC,-0.0933
3,AGCAAAGC,-0.121
4,TAACATTA,0.208
5,TGCGAAAA,0.175
6,CCTCACGA,-0.226
7,ATTATATG,0.134
8,AGTGGCAG,-0.0973
9,CACTTCGG,0.0808
10,GGTTCTCA,-0.0185
11,CCCCGTAG,-0.109
12,CTCAATGA,-0.0214
13,CGTGCGAC,-0.237
14,TAGGACCA,-0.108
15,CATCCAAA,0.0766
16,AAGAAAGA,0.228
17,ACGGTCGG,-0.117
18,TGATCGCA,-0.221
19,GGTGCCGA,0.0169
20,CTAGAAAC,-0.03
21,CCATGTAG,-0.0931
22,AGCTCTCG,-0.0248
23,ATCTGACA,-0.111
24,AATGCCCT,-0.287
25,ACAGAAAC,0.115

row,Sequence,PBM E-score
1,CGTATCTA,0.0945
2,CAGGTAAC,-0.168
3,CGATATCG,0.126
4,CCCTCAAC,-0.184
5,AGATGAGG,-0.0886
6,GAAACCTC,-0.086
7,AGGAGTGC,-0.143
8,AGTGACAA,0.111
9,CCTCTCCG,0.178
10,TCACGACA,-0.142
11,ACGACTCG,-0.172
12,AGTAGGCA,0.154
13,AGTAACCC,0.0188
14,TTACGAAA,0.241
15,AACTATTG,0.15
16,AAGCCATT,-0.00374
17,CCCAAAGC,-0.0681
18,GATACTAC,-0.0164
19,ATAGCTTC,0.118
20,GAATATAA,0.153
21,CTCGGGTC,-0.0594
22,AGGAGGCC,-0.186
23,CGGTAATA,0.27
24,CGCCTTCC,0.0146
25,CGACGACC,0.0495

row,Sequence,PBM E-score
1,AAGGTTAA,0.139
2,ACGTAGCA,-0.16
3,GCCCGGCC,-0.0583
4,ATTCCAAC,-0.0428
5,AGCCGGAA,0.233
6,CGTGCGTA,-0.152
7,GCCAACCA,-0.0657
8,AGATTAGG,-0.0597
9,GGCGGATA,-0.119
10,AAACATTC,0.115
11,GAATGTAA,0.18
12,CGCGCTAA,0.14
13,CGAGCACA,-0.0247
14,AGCCTTTG,-0.165
15,AACGGAAT,0.294
16,ACAGCCGA,-0.268
17,CTAAGATC,0.093
18,GCGTCCGA,-0.09
19,GGTAGGTA,0.0335

# — the supplement of paper PMC3334620
